Results on one compound are retold here after paper PMC9804489, “Phase 1/1b Studies of UCB0599, an Oral Inhibitor of α‐Synuclein Misfolding, Including a Randomized Study in Parkinson's Disease” (Movement Disorders, 2022).

As usually defined, the fraction unbound is the share of the substance not bound to proteins or other matrix. A lower fraction unbound goes with extensive binding. In general, half-life refers to the time in which the quantity being followed falls by half.

Data set [1] can be described thus: UP0078 phase 1 study: effect of food and ITZ on single-dose PK of UCB0599. Format: in vivo, human. As to the method: Statistical evaluations for all three studies were performed using SAS version 9.4 (SAS, Cary, NC, USA), and PK data were analyzed using Phoenix WinNonlin software (Certara, Princeton, NJ, USA). Continuous variables were summarized with number of participants, mean, standard deviation, median, minimum and maximum, and confidence intervals (CI) for the mean. Categorical variables were summarized with frequency counts and percentages.

Data set [2] in a line: UCB0599 fraction unbound measured ex-vivo in plasma. Format: in vitro ADME. Conditions: human; measured ex‐vivo in plasma, constant between dose groups. An excerpt: (§1) A linear, time‐independent, PK profile was observed, and the PK of multiple doses of UCB0599 were predictable from single‐dose exposures.
Data set [3] in a line: PK across all three phase 1/1b studies. Format: in vivo. The following applies: human, plasma, oral; UP0030, UP0078, UP0077; read-out: Apparent elimination half‐life, range across all three studies.
Text: as §1

Details of data set [4]: method as in ref 11 = [11]; 11 Maguire R , Mercier J , Colson A , et al. OPR‐093: assessment of brain concentration of UCB0599, in development for Parkinson's disease (PD), in humans using PET . Eur J Neurol 2021; 28 ( S1 ): 61. The following applies: HPs, after 360 mg UCB0599; cited from earlier work.
The nature of data set [5]: UP0077 phase 1b study: safety and tolerability in participants with PD. Conditions: UP0077, all UCB0599 N=21.
Data set [6] can be described thus: UP0078 phase 1 food/ITZ study: safety and tolerability in healthy participants. Conditions: UP0078, UCB0599 N=22.

Regarding `CCCC[C@H](Cc1c[nH]c2ccccc12)NC(=O)c1cnc(N2CCN(C)CC2)s1` [UCB0599], in data set [1] (180 mg single dose, ITZ 200 mg once daily, 90% CI 262.1–296.3), the “GeoLSM ratio UCB0599 + ITZ versus UCB0599 fasted for AUC(0–t)” value is listed as 278.7%. For the same compound, in data set [1] (200 mg of ITZ (strong CYP3A4 inhibitor)), the “Increase in UCB0599 plasma exposure on co‐administration of ITZ” value is “more than twofold”. For the same compound, the “Median difference in t max between UCB0599 + ITZ and UCB0599 fasted” value in data set [1] (Hodges–Lehmann estimate, 90% CI 0–1.0) is 0.5 h. Besides, the CYP3A4 substrate classification result in data set [1] (from ITZ interaction) was “moderately sensitive CYP3A4 substrate”. In addition, in data set [2], the fraction unbound was around 0.011. Further, the half-life in data set [3] was in the range of 9.3 to 13.1 h. The “Brain penetration (white and gray matter regions), PET” value in data set [4] is on record as “good brain penetration”. Besides, the Deaths in data set [5] and in data set [6] was 0 n (%) […] each time. The “TEAEs of special interest” value in data set [6] is 0 n (%) […].
